Measured values published in PubChem BioAssay AID360 (National Center for Advancing Translational Sciences (NCATS), 2006).
Out of some 48,000 compounds screened, about 550 (1.1%) were called active. Not shown: some 4% with an inconclusive outcome. Rule as the data show it: active = potency below about 15 µM; inconclusive = mostly about 16 µM to 33 µM; inactive = weaker than that. The list shows a part of the results.

Biological target: Lysosomal acid glucosylceramidase (Homo sapiens) (UniProt P04062)
Chain of UniProt P04062 (P04062 whole entry, looked up): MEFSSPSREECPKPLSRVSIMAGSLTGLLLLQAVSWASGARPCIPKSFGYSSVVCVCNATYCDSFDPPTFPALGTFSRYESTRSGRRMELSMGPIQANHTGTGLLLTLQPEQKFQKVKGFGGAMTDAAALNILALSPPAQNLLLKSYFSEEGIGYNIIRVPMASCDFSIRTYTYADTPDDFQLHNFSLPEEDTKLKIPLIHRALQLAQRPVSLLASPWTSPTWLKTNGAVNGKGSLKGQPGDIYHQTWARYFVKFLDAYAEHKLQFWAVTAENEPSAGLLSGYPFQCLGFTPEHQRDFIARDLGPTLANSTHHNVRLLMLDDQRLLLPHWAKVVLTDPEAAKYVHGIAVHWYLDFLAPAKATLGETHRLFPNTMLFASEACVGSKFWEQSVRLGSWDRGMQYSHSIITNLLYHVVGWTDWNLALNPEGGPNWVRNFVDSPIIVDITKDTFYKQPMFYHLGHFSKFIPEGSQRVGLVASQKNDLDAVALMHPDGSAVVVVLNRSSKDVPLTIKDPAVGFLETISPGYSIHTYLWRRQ
Assay: Glucocerebrosidase;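 also: the screen sought inhibitors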
Settings: purified enzyme, resorufin glucoside fluorescence (screen aimed at inhibitors), 20 min; series mostly up to 77 µM
Method in brief: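 Normal human glucocerebrosidase (0.2 nM final) was assayed with resorufin β-D-glucopyranoside (30 uM final) in 50mM citric acid/KH2PO4, 10mM sodium taurocholate, 0.01% tween-20, pH 5.9. Compounds were titrated; fluorescence (Ex 548, Em 600) read after 20 min at RT.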
Potency is read from the fitted curve at half-maximal effect.

Potency, inactive:
COc1ccc2c(c1OC)C(=O)N(c1ccccn1)C2 > 76.9 µM
CCc1cc2c(NCCC(=O)O)nc(C)nc2s1 > 76.9 µM
Cn1c(=O)c2c(nc(Oc3ccc(-c4ccccc4)cc3)n2C)n(C)c1=O > 76.9 µM
Cc1ccc(F)cc1NC(=O)C1CCCN(c2ncccn2)C1 (centres undefined) > 76.9 µM
CCOC(=O)Cc1nn(C)c(=O)c2ccccc12 > 76.9 µM
C=CCNC(=O)c1ccccc1NS(=O)(=O)c1ccccc1 > 76.9 µM
O=C(CC1SCCNC1=O)Nc1cccc(Cl)c1 (centres undefined) > 76.9 µM
COn1c(-n2nc(C)cc2C)nc2ccccc2c1=O > 76.9 µM
COC(=O)c1nnn(-c2nonc2N)c1CSCCO > 76.9 µM
CCCn1cc(NC(=O)c2cc3n(n2)C(C(F)(F)F)CC(c2ccccc2)N3)cn1 (centres undefined) > 76.9 µM
COc1ccc(CN(C(=O)c2ccccc2OC)C2CCS(=O)(=O)C2)cc1 (centres undefined) > 76.9 µM
Cc1sc2ncnc(Sc3nnc4sc5ccccc5n34)c2c1C > 76.9 µM
COCCCNC(=O)CC(NS(=O)(=O)c1ccc(OC)cc1)c1ccc(OC)cc1 (centres undefined) > 76.9 µM
O=C(OCCN1C(=O)c2ccccc2C1=O)c1cc(S(=O)(=O)N2CCOCC2)ccc1Cl > 76.9 µM
CN1CCN(CCN2CCn3c2nc2ccccc23)CC1 > 76.9 µM
O=C(c1ccccc1)c1ccc(Oc2ncccn2)cc1 > 76.9 µM
O=C(O)CSc1nnc(CNc2ccc(Cl)cc2)n1Cc1ccccc1 > 76.9 µM
CCn1cc(C(=O)OCc2ccccc2)c(=O)c2ccc(C)nc21 > 76.9 µM
COc1cccc(N2CCN(C(=O)c3[nH]c(C)c(C(C)=O)c3C)CC2)c1 > 76.9 µM
OC(CN1CCOCC1)CN(c1ccccc1)c1ccccc1 (centres undefined)
Cc1ccc(S(=O)(=O)NCC(=O)OCC(=O)N2CCc3ccccc32)cc1 > 76.9 µM
COc1cc(OC)c(C(=O)COc2ncnc3ccccc23)c(OC)c1 > 76.9 µM
COc1cccc(N2CCN(C(=O)C3C4C=CC5(CN(Cc6ccccc6Cl)C(=O)C35)O4)CC2)c1 (centres undefined) > 76.9 µM
COc1ccc(-c2ccc(-c3noc(C4CCCCC4)n3)c(OC)n2)cc1 > 76.9 µM
O=C(c1ccccc1F)N1CCc2ccccc21 > 76.9 µM
CC(NC(=O)c1cc(-c2cccs2)on1)c1ccccc1 (centres undefined) > 76.9 µM
O=c1cc(N2CCCC2)[nH]c(=O)n1-c1ccc(Cl)cc1 > 76.9 µM
Cc1nnc(SCCn2c(Br)nc3c2c(=O)[nH]c(=O)n3C)s1 > 76.9 µM
COCCCNC(=O)c1cccc(OC)c1OC > 76.9 µM
N/C(Cn1nnc(-c2ccccc2)n1)=N\O > 76.9 µM
CCN(CC)S(=O)(=O)c1ccc2oc(C(=O)N3CCOCC3)c(C)c2c1 > 76.9 µM
O=S(=O)(c1ccc(NCCc2c[nH]c3ccccc23)nc1)N1CCOCC1 > 76.9 µM
Cc1ccc(S(=O)(=O)N2CCCC2C(=O)NC2=NCCS2)cc1 (centres undefined) > 76.9 µM
COC(=O)COc1ccc(S(=O)(=O)NCc2ccncc2)cc1 > 76.9 µM
Cc1ccc(C(C)C)c(OCC(=O)N2CCOCC2)c1 > 76.9 µM
O=C1C(c2ccncc2)=C(O)c2ccccc21 > 76.9 µM
CCOC(=O)c1cc(-c2ccccc2)n(CC(=O)N2CCCC2)c1C > 76.9 µM
NS(=O)(=O)c1ccc(NC(=O)CSc2ccccn2)cc1 > 76.9 µM
O=C1CC(c2ccccc2)CC(O)=C1C=NCc1ccco1 (centres undefined) > 76.9 µM
COc1ccccc1N1CCN(S(=O)(=O)c2cccc(F)c2)CC1 > 76.9 µM
O=C(CCCCCn1c(=O)[nH]c2ccccc2c1=O)NCCCN1CCN(c2ccccc2F)CC1 > 76.9 µM
CN(C)/C=N/c1sccc1C(N)=O > 76.9 µM
COc1ccccc1NC(=O)C1=C(C)NC2=C(C(=O)CCC2)C1c1ccc(C)o1 (centres undefined) > 76.9 µM
COc1cc(CN2CCC(C(=O)N3CCC(C)CC3)CC2)cc(Br)c1O > 76.9 µM
CC(C)C(=O)Nc1ccc(NC(=O)c2cccs2)cn1 > 76.9 µM
O=C(NC1CC2CCC(C1)N2C(=O)NCc1ccccc1)C1CC1 (centres undefined) > 76.9 µM
COC(=O)[C@H](C)NC(=O)NCc1ccccc1F > 76.9 µM
Cc1cc(C)c(NC(=O)CCCN2CCN(C)CC2)c(C)c1 > 76.9 µM
COC(=O)CCN(C(C)=O)c1ccc(N)cc1 > 76.9 µM
O=c1c2[nH]c3ccccc3c2ncn1CCN1CCNCC1 > 76.9 µM
COc1cccc(CN(CC(=O)NCC2CCCO2)C(=O)CCC(=O)Nc2cc(C)on2)c1 (centres undefined) > 76.9 µM
CC(=O)c1cccc(NC(=O)N2CCCC2C(=O)NCc2ccc(C)cc2)c1 (centres undefined) > 76.9 µM
O=C(O)CCc1ccc(-c2cccs2)n1NC(=O)c1ccccc1Br > 76.9 µM
O=C(CSc1nnc(-c2ccncc2)n1Cc1ccco1)Nc1ccccc1Cl > 76.9 µM
COCCCNC(=O)CCc1nc(-c2ccccc2)no1 > 76.9 µM
Cc1cc(C)n(-c2ccc(C(=O)NC(C)C)cc2)n1 > 76.9 µM
Cn1c(SCC(=O)c2ccccc2)nnc1C1CC1 > 76.9 µM
CCC(=O)Oc1ccc(C/C(=N\O)c2ccc(O)cc2O)o1 > 76.9 µM
CCc1nnc(NC(=O)c2c(OC)cccc2OC)s1 > 76.9 µM
CN1CCN(/C(=N\O)c2nonc2N)CC1 > 76.9 µM
CCc1nnc(SCC(=O)N2CCCc3ccccc32)nc1CC > 76.9 µM
O=C(Nc1ccc2oc(Cc3ccc(Cl)cc3)nc2c1)c1cccnc1
Cc1cccc(CS(=O)(=O)Cc2ccc(C(=O)O)o2)c1 > 76.9 µM
Cc1nc2cc(C(F)(F)F)ccc2n1C1CCN(CC(=O)N2CCOCC2)CC1 > 76.9 µM
COc1ccccc1N(CCC#N)C(=O)CSc1ccc2c(c1)OCCO2 > 76.9 µM
Cc1ccc2c(c1)[nH]c1c(=O)n(Cc3ccccn3)cnc12 > 76.9 µM
Cc1ccc(S(=O)(=O)CC(=O)N2CCCC2)cc1 > 76.9 µM
Cc1csc(N(C)C(=O)CSc2nnc(COc3ccccc3C)o2)n1 > 76.9 µM
CCSc1ccccc1C(=O)NCc1ccc(S(N)(=O)=O)cc1 > 76.9 µM
CCOC(=O)C1=C(N)Oc2cc(C)oc(=O)c2C1c1cccnc1 (centres undefined) > 76.9 µM
CCn1c(SCC(=O)Nc2nonc2C)nnc1-c1ccoc1C > 76.9 µM
O=C(CN1CCOCC1)N(c1ccccc1)c1ccc2ccccc2c1 > 76.9 µM
COC(=O)N1CC(c2ccccc2)CC1=O (centres undefined) > 76.9 µM
Cc1nnc(SCc2nnc(-c3ccccc3)o2)n(N)c1=O > 76.9 µM
O=C(CSc1nnc(-c2cccnc2)n1Cc1ccco1)Nc1nc(-c2ccc(F)cc2)cs1 > 76.9 µM
Cc1noc(C)c1S(=O)(=O)N1CCCC(C(=O)NCc2ccccn2)C1 (centres undefined) > 76.9 µM
C=CCC(Nc1ccco1)c1ccccc1 (centres undefined) > 76.9 µM
COc1cc(C2C3C(=O)N(Cc4ccccc4)C(=O)C3ON2c2ccccc2)cc(OC)c1OC (centres undefined) > 76.9 µM
COc1cccc(-c2nnc(SCC(=O)Nc3ccc4c(c3)OCCO4)n2Cc2ccco2)c1 > 76.9 µM
CC1CN(C(=O)C2CCCCC2)C(C)CN1C(=O)C1CCCCC1 (centres undefined) > 76.9 µM
Cc1ccc(N(CC(=O)N2CCN(C3CCCCC3)CC2)S(=O)(=O)c2cccnc2)cc1 > 76.9 µM
Nc1nc(SCC(=O)N2CCCC2)[nH]c(=O)c1-c1ccccc1 > 76.9 µM
COC(=O)C(C)Oc1ccc(=O)[nH]n1 (centres undefined) > 76.9 µM
CCOC(=O)CSc1nnnn1-c1cccc2ccccc12 > 76.9 µM
Cc1ncc(CO)c2cc(C(N)=O)c(=Nc3ccccc3)oc12 > 76.9 µM
COc1ccc(CNC(=O)CN(CC2CCCO2)C(=O)CNS(=O)(=O)c2ccc(C)cc2)cc1 (centres undefined) > 76.9 µM
CCCOc1ccc2oc(=O)c3c(c2c1)CCCN3C(=O)CN1CCCC(C(=O)OCC)C1 (centres undefined) > 76.9 µM
O=C(CCCn1c(=O)[nH]c2ccsc2c1=O)N1CCCCC1 > 76.9 µM
CCc1ccc(OCC(=O)N(C)CCC#N)c(Br)c1 > 76.9 µM
CCOC(=O)c1cc2ccccc2nc1C > 76.9 µM
Cc1csc(SCC(=O)Nc2nc(-c3ccccc3)cs2)n1 > 76.9 µM
CCCn1c(O)c(CN2CCCCC2)c(C)c(C#N)c1=O > 76.9 µM
COc1cccc(N2CCCn3c2nc2c3c(=O)n(CCN3CCOCC3)c(=O)n2C)c1 > 76.9 µM
COC(=O)CNC(=O)Cn1cnc2sc(C)c(S(=O)(=O)N3CCC(C)CC3)c2c1=O > 76.9 µM
